Reference: article PMC4336329 (PLoS ONE, 2015)
The whole screen tested about 310,000 compounds, of which about 14,000 (4.5%) showed an effect of 50% or more. Effects have a minus sign here. The list shows a part of the results.

These molecules were tested against human ether-à-go-go-related gene (hERG) potassium channel (human, UniProt Q12809) (assay: primary screen, population patch clamp on CHO cells stably expressing hERG).
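Note: peak tail current of the secondary pulse compared with the same well before compound.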

Sequence of human ether-à-go-go-related gene (hERG) potassium channel (Q12809 whole entry, looked up): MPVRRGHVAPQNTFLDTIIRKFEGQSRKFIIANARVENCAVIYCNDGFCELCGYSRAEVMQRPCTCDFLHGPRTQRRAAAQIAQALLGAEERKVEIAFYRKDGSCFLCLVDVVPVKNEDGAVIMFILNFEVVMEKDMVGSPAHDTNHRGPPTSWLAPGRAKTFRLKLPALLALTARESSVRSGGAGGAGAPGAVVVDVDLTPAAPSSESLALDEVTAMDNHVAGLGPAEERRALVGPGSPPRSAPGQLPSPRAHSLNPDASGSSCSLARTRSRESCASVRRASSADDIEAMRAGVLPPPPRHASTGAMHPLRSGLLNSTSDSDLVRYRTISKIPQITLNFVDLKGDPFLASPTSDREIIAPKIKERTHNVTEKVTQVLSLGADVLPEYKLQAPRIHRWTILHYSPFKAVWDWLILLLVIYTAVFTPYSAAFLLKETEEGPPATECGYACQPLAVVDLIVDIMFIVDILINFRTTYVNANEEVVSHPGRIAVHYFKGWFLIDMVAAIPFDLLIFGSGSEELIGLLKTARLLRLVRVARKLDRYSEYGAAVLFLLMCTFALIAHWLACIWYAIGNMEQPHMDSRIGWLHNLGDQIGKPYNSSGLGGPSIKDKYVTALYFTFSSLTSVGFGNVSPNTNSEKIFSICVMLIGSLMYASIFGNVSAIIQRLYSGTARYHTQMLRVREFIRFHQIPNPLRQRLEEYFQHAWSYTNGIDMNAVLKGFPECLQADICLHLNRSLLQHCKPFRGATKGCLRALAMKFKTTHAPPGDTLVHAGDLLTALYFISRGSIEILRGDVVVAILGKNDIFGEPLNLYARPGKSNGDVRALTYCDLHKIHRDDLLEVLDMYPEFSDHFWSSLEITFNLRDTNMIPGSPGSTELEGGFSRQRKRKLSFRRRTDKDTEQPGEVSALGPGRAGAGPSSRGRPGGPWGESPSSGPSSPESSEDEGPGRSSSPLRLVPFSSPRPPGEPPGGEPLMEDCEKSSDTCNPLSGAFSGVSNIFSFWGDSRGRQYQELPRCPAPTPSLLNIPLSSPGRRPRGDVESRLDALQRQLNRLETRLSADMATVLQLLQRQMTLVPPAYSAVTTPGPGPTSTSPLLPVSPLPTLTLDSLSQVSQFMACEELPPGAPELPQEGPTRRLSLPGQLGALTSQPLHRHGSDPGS

SMILES	hERG current change (%, negative = inhibition) at 10uM [%]
O=c1oc2ccccc2c(N2CCCC2)c1[N+](=O)[O-]	14.5
CCC(=O)N1CCN(c2ccccc2NC(=O)COc2cccc(C)c2)CC1	-38.2
Br.Cc1ccc(C(=O)Cn2c(NCCO)nc3ccccc32)cc1	-8.18
Cc1ccc(-c2nnc(SCC(=O)N/N=C/c3cccs3)n2-c2ccc(C)cc2)cc1	4.75
COc1ccc(OCCC(=O)N2CCOCC2)cc1	7.32
COc1ccc2c(c1)OC[C@H]1[C@H]2N2C(=O)[C@H](C)NC(=O)[C@@]2(C)[C@H]1c1ccccc1	14
Nc1n[nH]c(N)c1N=Nc1ccc2c(c1)OCO2	9.43
CCC(=O)Nc1nnc(S(=O)(=O)N2CCCc3ccccc32)s1	2.92
COc1ccc2sc(NC(=O)CC(C)C)nc2c1	-21
Cn1nc(C(=O)N2CCC(C(N)=O)CC2)c2c1-c1ccccc1SC2	-14.3
CNC(=S)N(Cc1ccc(OC)cc1)Cc1cc2cc(C)ccc2[nH]c1=O	18
COc1ccccc1N1CCN(C(c2ccccn2)c2nnnn2C2CCCCC2)CC1 (stereo not drawn)	-8.34
CC(N)C(=O)NC(C(=O)N1CCCC1C(=O)NC(c1ccccc1)c1ccccc1)C(C)C.O=C(O)C(F)(F)F (stereo not drawn)	-3.44
CCCCn1cnc(C(=O)OCC)c1N	-10.3
CCOC(=O)C(=CNc1ccc(-c2ccco2)c(Cl)c1)C(=O)OCC	-13.9
CCOc1ccc(-c2[nH]ncc2-c2csc(C)n2)c(O)c1	-2.1
CCOCc1nnc(NC(=O)c2cc(C(=O)OC)cc([N+](=O)[O-])c2)s1	21.3
CCN(CC)CCN(Cc1cc2cc3c(cc2[nH]c1=O)OCO3)C(=S)NCCCN(C)C	10.2
CC[C@]1(O)C[C@@H]2CN(CCc3c([nH]c4ccccc34)[C@@](C(=O)OC)(c3cc4c(cc3OC)N(C)[C@H]3[C@@](O)(C(=O)OC)[C@H](OC(C)=O)[C@]5(CC)C=CCN6CC[C@]43[C@@H]65)C2)C1.O=S(=O)(O)O	7.12

SMILES	hERG current change (%, negative = inhibition) at 10uM [%]
Cc1cc(NC(=O)CN2C(=O)NC(c3ccccc3)(c3ccc(C)c(C)c3)C2=O)no1 (stereo not drawn)	-48.5
CN(CC12CC3CC(CC(C3)C1)C2)C(=O)c1ccco1	-2.91
CCN1C(=O)/C(=C/N2CCc3ccccc32)SC1=S	21.7
CCn1nnnc1NC(=O)c1cc(OC)c(OC)c(OC)c1	1.4
CCC(=O)N1CCN(c2nnc(-c3ccccc3)c3ccccc23)CC1	-13.5
CN(C(=O)COc1ccc(Br)cc1Cl)C1CCCCC1	-0.252
CC(=O)Nc1coc2ccc(Br)cc12	-8.07
CCCOc1ccc(C(=O)NCc2cccnc2)cc1	-1.45
O=C(NNS(=O)(=O)c1ccc(C(F)(F)F)cc1)c1cnn(-c2ccccc2)c1C(F)(F)F	11.5
COc1cccc2c1c(NC(=O)Nc1ccc(F)cc1F)nn2C	15.3
CCOC(=O)N1CCC(N2C(=O)c3ccccc3C2=O)CC1	-14.6
Cc1ccc(-c2nc(N)sc2CC(=O)OCC(=O)NC2CCCC(C)C2C)cc1 (stereo not drawn)	-6.2
COC(=O)Cn1cc(/C=N/NC(=O)c2ccc(C#N)cc2F)c2ccccc21	-12.1
CN(CC(=O)Nc1ccc(F)cc1)C(=O)c1ccncc1	8.83
CC1CN(Cc2nc3c(c(=O)n(C)c(=O)n3C)n2CC(=O)c2ccccc2)CC(C)O1 (stereo not drawn)	6.25
CCOC(=O)c1c(Cl)c(C)nn1-c1nc(OC)cc(OC)n1	2.65
S=C1N(c2ccccc2)C(c2ccc(Cl)cc2)N2CCCN12 (stereo not drawn)	-6.19
CCN(CC)CCN(C)C1CCC(c2ccccc2)CC1 (stereo not drawn)	-4.92
C=CCSc1nnc(-c2ccccc2NC(=O)CC)c(=O)[nH]1	1.91

SMILES	hERG current change (%, negative = inhibition) at 10uM [%]
COc1cccc(NS(=O)(=O)Cc2ccccc2)c1	10.4
CNP(=S)(NC)OCCOc1ccc(OC)cc1	4.07
Cc1ccccc1OCC(=O)O/N=C(\N)Cc1cccs1	5.34
COc1ccc(CC(NC(C)=O)C(=O)NC2CCN(S(=O)(=O)c3ccccc3)CC2)cc1OC (stereo not drawn)	8.73
Cc1ccc(NC(=O)N2CCCCC2)cc1NC(=O)N1CCCCC1	16.5
O=C(c1cccc(Cl)c1)C1CCCN(Cc2ccon2)C1 (stereo not drawn)	-26.3
O=C(NCCCc1nc2ccccc2[nH]1)c1ccc(F)cc1	-8.92
CCc1ccc(OCC(=O)N2CCc3ccccc32)cc1	11.4
Cc1ccc(-c2nn(-c3ccccc3)cc2NC(=O)c2ccccc2)cc1	8.71
Oc1ccc(-c2csc(Nc3ncccn3)n2)c(O)c1	26.1
Cc1cc(C)cc(NC(=O)N2CCC(C(=O)c3ccc(F)cc3)CC2)c1	-77.7
O=C(N/N=C\c1ccc([N+](=O)[O-])s1)C1COc2ccccc2O1 (stereo not drawn)	-28
CC(=O)c1ccccc1NC(=O)COC(=O)CN1C(=O)C2CCCCC2C1=O (stereo not drawn)	2.92
O=C(/C=C/c1ccccc1[N+](=O)[O-])NCc1ccccc1Cl	22.7
CC(=O)Nc1ccc(CN2CCCN(C)CC2)cc1	12.3
COc1cccc(-n2c(Cc3cc(=O)[nH]c(=O)[nH]3)nnc2SCC(=O)N2CCCC2)c1	0.535
COC(=O)CNC(=O)c1nn(-c2cccc(OC)c2)c(=O)c2ccccc12	-5.31
Nc1ccc(NS(=O)(=O)c2ccccc2)cc1	6.77
COc1cccc(CN2CC(C(=O)NCc3ccc(C)c(F)c3)CCC2=O)c1 (stereo not drawn)	-40.8
